Among the data in PubChem BioAssay AID485344 (National Center for Advancing Translational Sciences (NCATS), 2010) are inhibition values, retold here.

“And” between values parts separate entries of the source, which are not always exact repeats. Equal entries are not always repeated. Among all 340,000 compounds or so, about 6,900 (2%) were called active. Cut-off read from the data, not from the text of the source: active = inhibition above about 30%; inactive = below that, where a call was filed. This is a selection; strong and weak results do not stand in their true shares. The source gives no active or inactive call for entries shown without one.

The test addresses D(2) dopamine receptor (Homo sapiens) (UniProt P14416). Description: HTS Assay for Allosteric Antagonists of the Human D2 Dopamine Receptor: Primary Screen for Antagonists. Note: 0% is about no effect. Particulars: HEK293 TREx D2 cells, calcium flux, dopamine EC80; at 10 µM; stronger effect = higher value. The procedure, abridged: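 Read-out: kinetic calcium fluorescence (1 cycle/s) in inducible HEK293 T-REx D2 cells after an EC80 dopamine addition that followed 180 s compound preincubation. Loss of the dopamine response indicates antagonism.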
Sequence of UniProt P14416 (P14416 whole entry, looked up): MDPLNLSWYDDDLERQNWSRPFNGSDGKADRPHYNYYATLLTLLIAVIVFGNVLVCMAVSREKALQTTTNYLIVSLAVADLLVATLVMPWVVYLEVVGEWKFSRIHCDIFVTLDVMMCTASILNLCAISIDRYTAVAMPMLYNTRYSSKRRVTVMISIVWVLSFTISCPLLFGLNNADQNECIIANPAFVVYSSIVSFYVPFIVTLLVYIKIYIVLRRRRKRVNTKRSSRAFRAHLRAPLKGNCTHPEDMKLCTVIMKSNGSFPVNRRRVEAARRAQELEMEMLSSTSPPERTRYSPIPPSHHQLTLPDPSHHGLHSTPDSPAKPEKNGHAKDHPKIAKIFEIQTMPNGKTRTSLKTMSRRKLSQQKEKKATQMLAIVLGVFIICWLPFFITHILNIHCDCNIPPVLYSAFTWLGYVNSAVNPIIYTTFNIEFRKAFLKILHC
As usually defined, the inhibition is the drop in the measured response relative to a control, in per cent. As for `Cc1cc(=O)oc2c3c(cc(OCC(=O)NC(Cc4ccc(Cl)cc4)C(=O)O)c12)OC(C)(C)CC3` (centres undefined), the inhibition is active: 35.9%.

For the compound `CC(C)NC(=O)Cn1c(=O)nc(-c2ccccc2)c2ccccc21`, the inhibition was -3.3%.

Regarding `CCOc1ccc(CCNC(=O)c2ccc(C)c(-n3cnc4cccnc43)c2)cc1`, the inhibition is -12%.

Turning to `COc1cccc(CNC(=O)c2ccc3c(Cl)c4c(nc3c2)CCCC4)c1`, the inhibition was 1.11%.

As to `Cc1ccc(C(C)C)c(OCc2ccc(C(=O)Nc3ccc(S(N)(=O)=O)cc3C)o2)c1`, the inhibition turned out to be 26.4%.

In the case of `CCOc1ccc(Nc2cc(C)c(C#N)c3nc4ccccc4n23)cc1`, the inhibition is -6.76%.

As to `N#Cc1cc(C(=O)c2cc(F)ccc2O)cn(-c2nccs2)c1=O`, the inhibition was active: 34.2%.

Take `Cc1ccc(SCC(=O)Nc2ccc3oc(-c4ccc(F)cc4)nc3c2)cc1`: the inhibition was -6.35%.

With `CCc1ccc(CNC(=O)c2ccc(NC(=O)N3CCSc4ncccc43)cc2)cc1`, the inhibition amounted to 4.33%.

Consider `COc1ccc(C(=O)NCc2nnc(SCC(=O)Nc3ccc(C)cc3)n2-c2ccccc2)cc1`, for which the inhibition is -1.1%.

As for `Cc1ccc(S(=O)(=O)N2CCC(c3nnc(-c4cccc(C)c4)o3)CC2)cc1`, the inhibition is 3.18%.

With `CCOc1ccc(CNC(=O)CCc2c(C)nn(-c3ccc(N4CCOCC4)nn3)c2C)cc1`, the inhibition was -12.7%.

Consider `CCC1CCCCN1C(=O)CSc1nc(-c2ccc(OC)cc2)cc(C(F)(F)F)n1` (centres undefined), for which the inhibition was -0.854%.

As for `CCn1cc2nc(SCC(=O)Nc3cccc(Cl)c3C)n(Cc3ccc(Cl)cc3)c(=O)c2n1`, the inhibition is -18.5%.

For the compound `CCc1ccc(CNC(=O)c2cnc3sc(N4CCCCCC4)nn3c2=O)cc1`, the inhibition was -1.05%.

With `CCOc1ccc(C(=O)Nc2ccc3nc(SCC(=O)N4CCCC4)sc3c2)cc1`, the inhibition was -18.7%.

Regarding `CC(C)c1ccc(NC(=O)CN(C)S(=O)(=O)c2ccc3c(c2)n(C)c(=O)c(=O)n3C)cc1`, the inhibition was -7.32%.

On to `CCOC(=O)N1CCN(CCC(=O)Nc2cc(C)ccc2C)CC1`, for which the inhibition was found to be 2.32%.

Consider `CCn1cnc2cc(NCc3ccc(N(C)C)cc3)ccc21`, for which the inhibition was found to be 6.62%.

With `COc1ccccc1CCNC(=O)C1CCN(c2nc3ccccc3nc2C(F)(F)F)CC1`, the inhibition came to 13.7%.

With `COC(=O)c1ccccc1NC(=O)CSc1c2c(nc3ccc(Cl)cc13)CCCC2`, the inhibition is -0.255%.

As to `COc1cccc(CNC(=O)C2CCCN(c3nnc(-n4c(C)ccc4C)s3)C2)c1` (centres undefined), the inhibition came out at 7.62%.

With `COc1ccc(N(C(=O)CNC(=O)c2cccs2)C(C(=O)NCC2CCCO2)c2ccccc2)cc1` (centres undefined), the inhibition was active: 80.4%.

For the compound `Cc1cc(C)c(S(=O)(=O)Nc2ccc(-c3ccc(N4CCCCC4)nn3)cc2)cc1C`, the inhibition is -1.41%.

For the compound `O=C(NCC(c1cccnc1)N1CCN(Cc2ccccc2)CC1)C(=O)Nc1ccc(F)cc1` (centres undefined), the inhibition worked out at 3.9%.

As to `O=C(Nc1c(O)c2ccccc2oc1=O)c1ccccc1Cl`, the inhibition is 11.7%.

As to `CCOc1ccc(CNC(=O)CN2C(=O)CSc3c2c(C)nn3-c2ccccc2)cc1`, the inhibition is -1.91%.

With `COCCNC(=O)c1ccc(NC(=O)N2CCCCc3ccccc32)cc1`, the inhibition was 4.58%.

On to `O=C(C1CC1)N1CCc2cc(Br)cc(S(=O)(=O)Nc3ccc(C(F)(F)F)cc3)c21`, for which the inhibition stood at 3.91%.

As to `CCOc1ccc(-n2nc3ccc(NC(=O)COc4ccccc4C)cc3n2)cc1`, the inhibition is -2.71%.

As for `COc1ccc(NC(=O)C(=O)NCCc2csc3nc(-c4ccccc4C)nn23)cc1`, the inhibition amounted to 15.3%.

Take `CCCC(=O)Nc1nnc(S(=O)(=O)N(C)c2ccccc2)s1`: the inhibition is 0.0664%.

As to `COc1ccc(S(=O)(=O)N(CCc2ccccc2)CC(=O)NCc2ccc(C)cc2)cc1`, the inhibition was determined as 4.25%.

In the case of `COC(=O)c1ccc(NC(=O)c2cc3cc4ccc(OC)c(Cl)c4nc3s2)cc1`, the inhibition was -2.77%.

Consider `O=C(NC1CC(=O)N(c2ccc(F)cc2)C1)C(c1ccccc1)c1ccccc1` (centres undefined), for which the inhibition was 2.17%.

As for `Cn1cc(C(=O)N2CCN(c3ccccc3)CC2)c(=O)c2cc(S(=O)(=O)N3CCCC3)ccc21`, the inhibition came to 2.3%.

For the compound `N#Cc1cnn(Cc2ccccc2)c1/N=C/N1CCOCC1`, the inhibition was active: 34.2%.

Take `Cc1ccc(Cn2c(Cc3ccccc3)nc3ccccc32)cc1`: the inhibition was -13.1%.

For `Brc1cnc(N2CCCC2)nc1N1CCOCC1`, the inhibition is active: 34.9%.

Regarding `O=C(CCNC(=O)c1ccc(Br)cc1)Nc1cccc(S(=O)(=O)N2CCCC2)c1`, the inhibition is active: 38.1%.

Consider `CCOc1ccc(CN2C(=O)c3ccccc3Sc3ccc(C(=O)NC4CCC(C)CC4)cc32)cc1` (centres undefined), for which the inhibition is 27.4%.

As to `CCOC(=O)c1ccccc1NC(=O)CCc1c(C)nc2c(c1C)c(=O)n(C)c(=O)n2C`, the inhibition turned out to be 16%.

`CCOc1ccccc1NC(=O)N1CCC(N2CCN(Cc3ccccc3)C(=O)C2=O)CC1`: the inhibition was -13.9%.

For the compound `CC(Oc1ccccc1F)C(=O)N1CCC(c2nc3ccccc3o2)CC1` (centres undefined), the inhibition stood at 8.48%.

Turning to `O=c1c2ccccc2nc(-c2ccc(Cl)cc2)n1CCCCOc1ccc(F)cc1`, the inhibition is -10.3%.

In the case of `COc1ccccc1NC(=O)C1=C(C)Nc2nc(SCc3ccccc3)nn2C1c1cccs1` (centres undefined), the inhibition was -11%.

`Cc1ccc(NC(=O)CN2C(=O)c3ccccc3Sc3ncccc32)c(C)c1`: the inhibition is -1.43%.

Regarding `O=C(NCCc1ccc(Cl)cc1)c1ccc2c(c1)N(Cc1ccccc1)C(=O)CS2`, the inhibition was -0.979%.

`O=S(=O)(c1ccccc1)c1nc(-c2ccccc2)oc1NCCCN1CCOCC1`: the inhibition is active: 47.7%.

With `COc1ccccc1N1CCN(CC(O)COc2cccc3ccccc23)CC1` (centres undefined), the inhibition was active: 80.7% and active: 96.3% and active: 86.3%.

As to `O=C(NCCCc1ccccc1)c1ccc2c(c1)sc1nc(-c3ccc(F)cc3)cn12`, the inhibition was -12.3%.

On to `Cc1ccccc1CN1C(=O)c2ccccc2Sc2ccc(C(=O)NCCCN3CCOCC3)cc21`, for which the inhibition is -7.17%.

Turning to `O=C(C1CC1)N1CCN=C1SCc1ccccc1Cl`, the inhibition is active: 35.4%.

For `Cc1ccc(Sc2c(C)nn(-c3ccccc3)c2OC(=O)CC(C)C)cc1`, the inhibition stood at 17.4%.

`CCOc1ccc(CC(=O)NCc2ccc3c(c2)CCN3C(=O)c2ccc(F)cc2)cc1OCC`: the inhibition is 17.8%.

In the case of `CC(=O)c1ccc(S(=O)(=O)Nc2cccc(-c3ccc(N4CCCC4)nn3)c2)cc1`, the inhibition was -20.2%.

On to `Cc1ccc(CNC(=O)CCCn2nc(C)n3c(cc4sccc43)c2=O)cc1`, for which the inhibition was -0.735%.

Consider `COc1cccc(C(=O)c2cn(CC(=O)Nc3ccc4c(c3)OCCO4)c3nc(C)ccc3c2=O)c1`, for which the inhibition is -11.6%.

With `CCC(=O)N1CCc2cc(S(=O)(=O)NC(CC(C)C)C(=O)NCc3cccc(OC)c3)ccc21` (centres undefined), the inhibition was -0.506%.

Turning to `O=C(c1ccc(Br)s1)N1CCN(Cc2ccc3c(c2)OCO3)CC1`, the inhibition was active: 78.4%.

For `COc1cc(NC(=O)C2CCN(S(=O)(=O)c3c(C)noc3/C=C/c3c(C)cc(C)cc3C)CC2)cc(OC)c1`, the inhibition is -11.9%.

On to `Cc1cccc(C)c1NC(=O)c1cc2sccc2n1Cc1ccc(F)cc1`, for which the inhibition turned out to be 2.61%.

In the case of `CCN(Cc1ccccc1)S(=O)(=O)c1ccc(F)c(C(=O)Nc2ccc(C(C)C)cc2)c1`, the inhibition is 2.94%.

For the compound `CSc1nc(NCc2ccco2)c2ccccc2n1`, the inhibition is active: 30.7%.

With `Cc1ccc(CNC(=O)c2cn(C)c3ccc(S(=O)(=O)N4CCC(C)CC4)cc3c2=O)cc1`, the inhibition is 9.16%.

Turning to `COC(=O)c1ccc(C)c(NC(=O)c2ccc(CN3CCc4ccccc4C3)cc2)c1`, the inhibition is active: 77.9%.

Regarding `CCCCN(CC)C(=O)Cn1cc2c(n1)-c1c(oc(C(=O)N3CCCC3)c1C)CC2`, the inhibition turned out to be 6.24%.

`CC(=O)C(Sc1nc(-c2ccccc2Cl)nc2c1c(=O)n(C)c(=O)n2C)C(=O)N(C)C` (centres undefined): the inhibition turned out to be 9.23%.

Consider `CCOC(=O)C1CCCN(S(=O)(=O)c2cc(Br)cc3c2N(C(=O)CC)CC3)C1` (centres undefined), for which the inhibition was found to be 6.15%.

Turning to `CC1CCN(CCCNC(=O)COc2cc(=O)n(C)c3ccccc23)CC1`, the inhibition is active: 34.1%.

On to `Cc1ccc(COC(=O)c2ccc(-c3nnn(Cc4ccc(C)cc4)n3)cc2)cc1`, for which the inhibition was found to be 0.629%.

Take `Cc1ccn2c(=O)c(NC(=O)c3cccc([N+](=O)[O-])c3C)c(C)nc2c1`: the inhibition is -11.3%.

As to `Cc1nn(-c2ccc(N3CCCCC3)nn2)c(C)c1CCC(=O)Nc1cccc(F)c1`, the inhibition came to 8.36%.

As for `COCCN(C(=O)COC(=O)/C=C/c1ccc(C(F)(F)F)cc1)c1c(N)n(Cc2ccccc2)c(=O)[nH]c1=O`, the inhibition was active: 45.3%.

With `O=C(NCc1ccc2c(c1)CCN2C(=O)c1ccncc1)c1cccc(F)c1`, the inhibition is -0.0707%.

`CCOC(=O)c1[nH]c(C)c(C(=O)NCc2ccccc2Cl)c1C`: the inhibition is -6.67%.

As to `O=C(CCc1nnc2n(Cc3ccccc3Cl)c(=O)c3ccccc3n12)Nc1ccccc1`, the inhibition stood at 18.5%.

With `COc1ccc(NC(=O)c2ccc(-c3nc(CSc4ccccc4)c(C)o3)cc2)c(OC)c1`, the inhibition is -6.81%.

Consider `CCCCN(c1ccccc1)S(=O)(=O)c1cc2c3c(c1)C(C)C(=O)N3CCC2` (centres undefined), for which the inhibition is -3.63%.

In the case of `CCc1ccc(S(=O)(=O)Nc2ccc3oc(C)c(C(=O)OCCOC)c3c2)cc1`, the inhibition came out at 6.18%.

As for `Cc1cccc(NC(=O)c2cc3c(C)nn(-c4ccccc4)c3s2)c1`, the inhibition is -1.56%.

`COCCn1c(SCC#N)nnc1-c1ccc(OC)cc1`: the inhibition was active: 54.6%.

As for `Cc1ccc(-n2ncc3c(=O)n(Cc4cccc(C(F)(F)F)c4)cnc32)cc1C`, the inhibition was -0.274%.

`CCCCn1c(SCc2ccccc2C#N)nc2c(sc3ccccc32)c1=O`: the inhibition is -0.914%.

In the case of `COC(=O)c1ccc(NC(=O)CN2CCN(c3ccccn3)CC2)cc1`, the inhibition was active: 68.5%.

On to `Cc1ccc2c(c1)-c1onc(C(=O)N(C)c3ccc(F)cc3)c1CO2`, for which the inhibition was -9.5%.

On to `CCOC(=O)Cn1c(=O)cc(C)c2c(C)nn(-c3cccc(F)c3)c21`, for which the inhibition stood at 2.27%.

`CC(C)(CN1CCN(Cc2ccccc2)CC1)NS(=O)(=O)c1ccccc1`: the inhibition was active: 40.7%.

`CCN1C(=O)c2ccccc2S(=O)c2ccc(C(=O)N3CCN(c4cccc(Cl)c4)CC3)cc21` (centres undefined): the inhibition is -3.16%.

For the compound `COC(=O)c1cc(NC(=O)CCc2c(C)nc3nc(C)nn3c2C)cc(C(=O)OC)c1`, the inhibition stood at 28%.

In the case of `O=C(Cc1ccc(F)cc1)NCCc1csc2nc(-c3ccc(Cl)cc3)nn12`, the inhibition was -11.6%.

In the case of `COc1cc(C(=O)Nc2nc3c(s2)Cc2c(Br)ccc(OC)c2-3)cc(OC)c1OC`, the inhibition is -1.35%.

With `CCC(Sc1nc2ccccc2c2nc(CCc3c(C)n[nH]c3C)nn12)C(=O)Nc1ccc(OC)cc1` (centres undefined), the inhibition is 4.08%.

Turning to `O=C(Nc1nnc(N2CCCCCC2)s1)Nc1ccccc1C(F)(F)F`, the inhibition is -3.24%.
